Laboratory results as given in PubChem BioAssay AID1030 (National Center for Advancing Translational Sciences (NCATS), 2008).
Screen size: about 220,000 compounds; about 16,000 (7.3%) were called active. Inconclusive means that the source gave no clear call. Such entries were picked first, then a sample of the others. Calls follow the shape of the dose curve; as a rule, active = well fitted inhibition curve with a large enough effect (not every such curve was filed as active); inconclusive = small, poorly fitted or top-dose-only effect, or another doubt; inactive = no such curve, though single readings can be large or run the other way. Potencies of inconclusive entries are doubtful fits and often do not repeat.

Each compound was assayed against Aldehyde dehydrogenase 1A1 (Homo sapiens) (UniProt P00352) (assay: qHTS Assay for Inhibitors of Aldehyde Dehydrogenase 1 (ALDH1A1)). Details: Purified ALDH1A1, NADH fluorescence, propionaldehyde substrate; series mostly up to 75.3 µM; activity, negative = inhibition: at the top concentration.
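For activity, negative = inhibition in this document: plate controls were no enzyme wells and a reference inhibitor.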
Potency is read from the fitted curve at half-maximal effect; tags tell the direction and shape of the fitted curve.

UniProt P00352, sequence (P00352 whole entry, looked up): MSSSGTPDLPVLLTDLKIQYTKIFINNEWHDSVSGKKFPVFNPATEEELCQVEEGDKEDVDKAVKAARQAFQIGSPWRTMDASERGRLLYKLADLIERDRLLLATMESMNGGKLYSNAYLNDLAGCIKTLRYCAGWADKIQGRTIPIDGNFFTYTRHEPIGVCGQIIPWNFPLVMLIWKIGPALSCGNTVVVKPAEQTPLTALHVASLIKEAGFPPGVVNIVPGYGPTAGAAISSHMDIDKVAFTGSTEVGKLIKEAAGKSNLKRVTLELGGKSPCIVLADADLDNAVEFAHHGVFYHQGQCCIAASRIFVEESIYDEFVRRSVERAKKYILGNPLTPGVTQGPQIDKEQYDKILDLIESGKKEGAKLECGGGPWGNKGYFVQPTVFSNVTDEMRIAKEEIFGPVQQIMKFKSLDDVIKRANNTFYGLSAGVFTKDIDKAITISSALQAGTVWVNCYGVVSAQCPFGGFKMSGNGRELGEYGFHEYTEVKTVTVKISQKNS

Potency, inconclusive:
Nc1nc(NCC2CCC(CNS(=O)(=O)c3cccc4ccccc34)CC2)nc2ccccc12 (stereo not drawn) 39.8 µM [inhibitor, single point], CCOc1ccccc1NC(=O)C(Sc1nnnn1C)c1ccccc1 (stereo not drawn) 17.8 µM [inhibitor, partial curve], COc1cccc(-c2nc(CS(=O)CC(=O)NC3CCCC3)c(C)o2)c1 (stereo not drawn) 25.1 µM [inhibitor, single point], CCc1ccccc1NCC(=O)Nc1ccc(Cl)c(C(F)(F)F)c1 39.8 µM [inhibitor, single point], COCCCn1c(SCc2ccccc2)nc2cc(OC)c(OC)cc2c1=N 28.2 µM [inhibitor, single point], CCN(C(=O)CSc1nnc(-c2ccccc2Br)o1)C1CCS(=O)(=O)C1 (stereo not drawn) 14.1 µM [inhibitor, partial curve, poor fit], COc1ccc(-c2cn3ccccc3n2)cc1OC 25.1 µM [inhibitor, partial curve], O=C(NCc1ccccc1)c1ccc(S(=O)(=O)N2CCCC2)cc1 39.8 µM [inhibitor, single point], CCCCOC(=O)CSc1nc(N)c(C#N)c(-c2ccc(OC)cc2)c1C#N 17.8 µM [inhibitor, partial curve], COc1cccc2cc3c(=O)oc4ccccc4c3nc12 29.9 µM [inhibitor, single point], Cc1c(C(=O)N/N=C/c2ccc(-c3ccccc3[N+](=O)[O-])o2)sc(N)c1C#N 31.6 µM [inhibitor, single point], CC(C)(C)c1cc(=O)n2c(C#N)c(C#N)nc2[nH]1 35.5 µM [inhibitor, single point], CC1(C)CC(=O)c2cc3c(N)c(C(=O)NCc4ccccc4)sc3nc2C1 0.562 µM [inhibitor, full curve], CSC1=NSC2=NC(=O)/C(=C\c3coc4ccccc4c3=O)C(=N)N12 39.8 µM [inhibitor, single point], C=CCn1c(COc2ccccc2-c2ccccc2)nnc1SCC(=O)NC(=O)NCc1ccco1 39.8 µM [inhibitor, single point], COCCCN1C(=O)c2ccc(C(=O)Nc3ccc(OC)cc3OC)cc2C1=O 17.8 µM [inhibitor, partial curve], Cc1cc(N2CCC(C)CC2)n2ncc(-c3ccccc3)c2n1 35.5 µM [inhibitor, single point], CC(CNc1ccc([N+](=O)[O-])cc1)NC(=O)c1ccccc1Br (stereo not drawn) 39.8 µM [inhibitor, single point], CCOC(=O)C(C)Oc1cccc2c(=O)n(CC(=O)Nc3ccc4c(c3)OCCO4)ccc12 (stereo not drawn) 39.8 µM [inhibitor, single point], CCCS(=O)(=O)c1ccc(COC(=O)c2cccc(NC(=O)C(C)C)c2)cc1 39.8 µM [inhibitor, single point], O=C(O)c1ccc(-n2nnnc2SCc2ccccc2F)cc1 39.8 µM [inhibitor, single point], CN(C(=O)COC(=O)c1ccccc1SCC(=O)NC1CCCCCCC1)C1CCS(=O)(=O)C1 (stereo not drawn) 39.8 µM [inhibitor, single point]

Potency, active:
CCc1nnc(SCc2ccc(OC)c(Br)c2)n1N 28.2 µM, CCOC(=O)C(C(=O)OCC)C(C(=O)OCC)N1CCOCC1 (stereo not drawn) 28.2 µM, O=C1CC(c2ccccc2Cl)=NN(c2ncnc3ccccc23)C1=O 0.631 µM, CCN(CC)c1ccc(/C=C/c2cc(-c3ccccc3)c3ccccc3n2)cc1 11.2 µM, COc1ccc(S(=O)(=O)NCc2c(-c3ccccc3)noc2C)c(OC)c1 2.51 µM, CN(C)c1ccc(/C=N/NC(=O)c2sccc2-n2cccc2)cc1 20 µM, COc1ccc(C(=O)OCC(=O)NCC2CCCCC2)cc1S(=O)(=O)N1CCCc2ccccc21 20 µM, CC(C(=O)Nc1ccccc1-c1ccccc1)N1CCN(Cc2ccccc2)CC1 (stereo not drawn) 14.1 µM, Cc1cc(/C=N/NC(=O)C(=O)NCc2ccccn2)c(C)n1-c1ccccc1 11.2 µM, COc1cccc(-c2csc(NC(C)=O)n2)c1 11.2 µM, O=C1C2CC=C(Cl)CC2C(=O)N1CC1Cc2ccccc2CO1 (stereo not drawn) 22.4 µM

activity, negative = inhibition, inactive:
COCCNC(=O)c1nn2cccnc2c1Cl 3.56%, Cc1ccc(NC(=O)C2CCCN(S(=O)(=O)c3c(C)noc3C)C2)c(C)c1 (stereo not drawn) 8.3%, c1ccc(NCCSc2nc3ccccc3s2)cc1 -4.25% [at 13.5 µM], Cn1c(=O)c2c(n(C)c1=O)=NC1(CCCCC1)ON=2 -16.7%, Cc1ccc(S(=O)(=O)N2CCOCC(=O)NCCOCCNC(=O)COCC2)cc1 14.6%, COC(=O)CC1Oc2ccccc2N(Cc2ccccc2)C1=O (stereo not drawn) 3.49%, CC(=O)N(Cc1ccccc1)c1nc(-c2ccccc2)cs1 -3.04%, O=C(O)COc1c(Cl)cc(Cl)c2cccnc12 -8.71% [at 13.5 µM], CC(=O)O[C@H]1CC[C@@]2(C)C(=CC[C@@H]3[C@@H]4CC[C@H](c5cc(C(F)(F)F)n(C(C)=O)n5)[C@]4(C)CC[C@@H]32)C1 3.84% [at 13.5 µM], COc1ccc(C(=O)OC/C(O)=C(\C#N)c2nc3ccccc3[nH]2)cc1S(=O)(=O)N1CCOCC1 12.3%, COc1ccc(CN2C(=O)c3ccccc3C2C(=O)NC2CCC(C)CC2)c(OC)c1 (stereo not drawn) -6.53%, O=C(NCCN=C1NS(=O)(=O)c2ccccc21)c1ccncc1 3.43%, COc1ccccc1Nc1ccc(C(=O)NC2CCCCC2)cn1 21.4%, CC(C)(C)NC(=O)C(=O)NNC(=O)COc1ccccc1 0.444%, Cn1nnnc1SCc1ccc(Cl)cc1 6.74%
